# From the supplement of paper PMC10037445
# In all, about 2,900 compounds were measured (“NF-kB SEAP reporter activity, fold change vs agonist alone”: median about 0.99, highest 2% from about 2.6 on). This is one part of the list.
# Key:
# RAW-Dual [1] = test: NF-kB SEAP reporter activity, fold change vs agonist alone; cytotoxicity flag (confluency mask): not cytotoxic; higher = enhanced NF-kB activity
# Procedure, shortened: (§1)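 RAW-Dual macrophages (50,000 cells/well in DMEM, 384-well plates) received 50 nL of library stock by pin tool, then a PRR agonist 1 h later, and were kept at 37 °C, 5% CO2. After 20 hours, supernatant was read for IRF by QuantiLuc luminescence and for NF-κB by QuantiBlue absorbance at 620 nm. Reporter activity is fold change over agonist-alone wells. Cytotoxic wells had IncuCyte confluency below 70% of agonist controls in both mask sets.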
# RAW-Dual [2] = test: NF-kB SEAP reporter activity, fold change vs agonist alone; higher = enhanced NF-kB activity
# Procedure, shortened: as §1
# RAW-Dual [3] = test: NF-kB SEAP reporter activity, fold change vs agonist alone; cytotoxicity flag (confluency mask): cytotoxic (confluency <70% of control); higher = enhanced NF-kB activity
# Procedure, shortened: as §1
# [4] = agonist: ODN 1826 (TLR9) 0.5 ug/mL
# [5] = agonist: Pam2CSK4 (TLR2/6) 0.1 ug/mL
# [6] = agonist: Pam3CSK4 (TLR2/1) 0.1 ug/mL
# [7] = library stock concentration (final ~1000-fold dilution): 10 mM, cytotoxicity flag (confluency mask): not cytotoxic, agonist: MPLA (TLR4) […]
# [8] = library stock concentration (final ~1000-fold dilution): 10 mM, cytotoxicity flag (confluency mask): not cytotoxic, agonist: Imiquimod (TLR7) […]
compound,measurement,setting,value
NC(=O)c1ncn(C2OC(CO)C(O)C2O)c1O (stereo unspecified) (library stock concentration (final ~1000-fold dilution): 10 mM water),NF-kB SEAP reporter activity,RAW-Dual [1]; agonist: LPS (TLR4) 0.1 ug/mL,0.614
same,NF-kB SEAP reporter activity,RAW-Dual [1]; [4],0.706
same,NF-kB SEAP reporter activity,RAW-Dual [1]; [5],0.27
same,NF-kB SEAP reporter activity,RAW-Dual [1]; [6],0.466
NC(=O)c1ncn(C2OC(CO)C(O)C2O)c1O (stereo unspecified),NF-kB SEAP reporter activity,"RAW-Dual [2]; library stock concentration (final ~1000-fold dilution): 10 mM water, cytotoxicity flag (confluency mask): not cytotoxic, agonist: Imiquimod (TLR7) […]",0.991
same,NF-kB SEAP reporter activity,"RAW-Dual [2]; library stock concentration (final ~1000-fold dilution): 10 mM water, cytotoxicity flag (confluency mask): not cytotoxic, agonist: MPLA (TLR4) […]",0.913
O=c1ccc2cc(O)c(O)cc2o1 (library stock concentration (final ~1000-fold dilution): 10 mM),NF-kB SEAP reporter activity,RAW-Dual [1]; agonist: LPS (TLR4) 0.1 ug/mL,1.03
same,NF-kB SEAP reporter activity,RAW-Dual [1]; [4],0.695
same,NF-kB SEAP reporter activity,RAW-Dual [1]; [5],1
same,NF-kB SEAP reporter activity,RAW-Dual [1]; [6],0.711
O=c1ccc2cc(O)c(O)cc2o1,NF-kB SEAP reporter activity,RAW-Dual [2]; [7],1.05
OB1OCc2cc(F)ccc21,NF-kB SEAP reporter activity,RAW-Dual [2]; [7],0.997
OB1OCc2cc(F)ccc21 (library stock concentration (final ~1000-fold dilution): 10 mM),NF-kB SEAP reporter activity,RAW-Dual [1]; agonist: LPS (TLR4) 0.1 ug/mL,1.02
same,NF-kB SEAP reporter activity,RAW-Dual [1]; [4],0.839
same,NF-kB SEAP reporter activity,RAW-Dual [1]; [5],0.808
same,NF-kB SEAP reporter activity,RAW-Dual [1]; [6],0.696
CN1CCc2c(c3ccccc3n2Cc2ccccc2)C1.CN1CCc2c(c3ccccc3n2Cc2ccccc2)C1.O=S(=O)(O)c1cccc2c(S(=O)(=O)O)cccc12,NF-kB SEAP reporter activity,"RAW-Dual [2]; library stock concentration (final ~1000-fold dilution): 2 mM, cytotoxicity flag (confluency mask): not cytotoxic, agonist: MPLA (TLR4) […]",1.15
CN1CCc2c(c3ccccc3n2Cc2ccccc2)C1.CN1CCc2c(c3ccccc3n2Cc2ccccc2)C1.O=S(=O)(O)c1cccc2c(S(=O)(=O)O)cccc12 (library stock concentration (final ~1000-fold dilution): 2 mM),NF-kB SEAP reporter activity,RAW-Dual [1]; agonist: LPS (TLR4) 0.1 ug/mL,1.29
same,NF-kB SEAP reporter activity,RAW-Dual [1]; [4],0.722
same,NF-kB SEAP reporter activity,RAW-Dual [1]; [5],0.952
same,NF-kB SEAP reporter activity,RAW-Dual [1]; [6],0.958
CC(=O)OC1(C(C)=O)CCC2C3C=C(Cl)C4=CC(=O)CCC4(C)C3CCC21C (stereo unspecified) (library stock concentration (final ~1000-fold dilution): 10 mM),NF-kB SEAP reporter activity,RAW-Dual [1]; agonist: LPS (TLR4) 0.1 ug/mL,1.21
same,NF-kB SEAP reporter activity,RAW-Dual [1]; [4],1.14
same,NF-kB SEAP reporter activity,RAW-Dual [1]; [5],1.08
same,NF-kB SEAP reporter activity,RAW-Dual [1]; [6],1.16
CC(=O)OC1(C(C)=O)CCC2C3C=C(Cl)C4=CC(=O)CCC4(C)C3CCC21C (stereo unspecified),NF-kB SEAP reporter activity,RAW-Dual [2]; [8],1.28
same,NF-kB SEAP reporter activity,RAW-Dual [2]; [7],1.12
O=C(CCCCCCCC(=O)NCCO)NCCO (library stock concentration (final ~1000-fold dilution): 10 mM),NF-kB SEAP reporter activity,RAW-Dual [1]; agonist: LPS (TLR4) 0.1 ug/mL,1.2
same,NF-kB SEAP reporter activity,RAW-Dual [1]; [4],0.998
same,NF-kB SEAP reporter activity,RAW-Dual [1]; [5],0.991
same,NF-kB SEAP reporter activity,RAW-Dual [1]; [6],0.856
O=C(CCCCCCCC(=O)NCCO)NCCO,NF-kB SEAP reporter activity,RAW-Dual [2]; [8],0.913
same,NF-kB SEAP reporter activity,RAW-Dual [2]; [7],1.03
Cc1c[nH]c(C=C2C(=O)Nc3ccccc32)c1CCC(=O)O,NF-kB SEAP reporter activity,RAW-Dual [2]; [8],0.662
same,NF-kB SEAP reporter activity,RAW-Dual [2]; [7],0.848
Cc1c[nH]c(C=C2C(=O)Nc3ccccc32)c1CCC(=O)O (library stock concentration (final ~1000-fold dilution): 10 mM),NF-kB SEAP reporter activity,RAW-Dual [1]; agonist: LPS (TLR4) 0.1 ug/mL,0.665
same,NF-kB SEAP reporter activity,RAW-Dual [1]; [4],0.926
same,NF-kB SEAP reporter activity,RAW-Dual [1]; [5],0.983
same,NF-kB SEAP reporter activity,RAW-Dual [1]; [6],0.647
CCN(CC)Cc1ccc(C(=O)N(CCc2ccccc2OC)C2CCNC2)cc1 (stereo unspecified),NF-kB SEAP reporter activity,RAW-Dual [2]; [8],0.518
same,NF-kB SEAP reporter activity,RAW-Dual [2]; [7],1.28
CCN(CC)Cc1ccc(C(=O)N(CCc2ccccc2OC)C2CCNC2)cc1 (stereo unspecified) (library stock concentration (final ~1000-fold dilution): 10 mM),NF-kB SEAP reporter activity,RAW-Dual [1]; agonist: LPS (TLR4) 0.1 ug/mL,0.9
same,NF-kB SEAP reporter activity,RAW-Dual [1]; [4],0.312
same,NF-kB SEAP reporter activity,RAW-Dual [1]; [5],0.883
same,NF-kB SEAP reporter activity,RAW-Dual [1]; [6],0.613
CCN(CCCc1ccccc1)CCCc1ccccc1.O=C(O)CC(O)(CC(=O)O)C(=O)O,NF-kB SEAP reporter activity,"RAW-Dual [2]; library stock concentration (final ~1000-fold dilution): 10 mM, cytotoxicity flag (confluency mask): cytotoxic (confluency <70% of control), agonist: Imiquimod (TLR7) […]",1.54
same,NF-kB SEAP reporter activity,"RAW-Dual [2]; library stock concentration (final ~1000-fold dilution): 10 mM, cytotoxicity flag (confluency mask): cytotoxic (confluency <70% of control), agonist: MPLA (TLR4) […]",1.11
CCN(CCCc1ccccc1)CCCc1ccccc1.O=C(O)CC(O)(CC(=O)O)C(=O)O (library stock concentration (final ~1000-fold dilution): 10 mM),NF-kB SEAP reporter activity,RAW-Dual [3]; agonist: LPS (TLR4) 0.1 ug/mL,1.14
same,NF-kB SEAP reporter activity,RAW-Dual [3]; [4],1.31
same,NF-kB SEAP reporter activity,RAW-Dual [3]; [5],1.02
same,NF-kB SEAP reporter activity,RAW-Dual [3]; [6],1.03
COc1ccc(C(=O)NCc2ccc(OCCN(C)C)cc2)cc1OC.Cl,NF-kB SEAP reporter activity,RAW-Dual [2]; [7],1.01
COc1ccc(C(=O)NCc2ccc(OCCN(C)C)cc2)cc1OC.Cl (library stock concentration (final ~1000-fold dilution): 10 mM),NF-kB SEAP reporter activity,RAW-Dual [1]; agonist: LPS (TLR4) 0.1 ug/mL,0.883
same,NF-kB SEAP reporter activity,RAW-Dual [1]; [4],1.04
same,NF-kB SEAP reporter activity,RAW-Dual [1]; [5],0.932
same,NF-kB SEAP reporter activity,RAW-Dual [1]; [6],1.01
Cc1cc(=O)[nH]c(=S)[nH]1 (library stock concentration (final ~1000-fold dilution): 10 mM),NF-kB SEAP reporter activity,RAW-Dual [1]; agonist: LPS (TLR4) 0.1 ug/mL,1.18
same,NF-kB SEAP reporter activity,RAW-Dual [1]; [4],1.04
same,NF-kB SEAP reporter activity,RAW-Dual [1]; [5],1.15
same,NF-kB SEAP reporter activity,RAW-Dual [1]; [6],0.9
Cc1cc(=O)[nH]c(=S)[nH]1,NF-kB SEAP reporter activity,RAW-Dual [2]; [8],0.942
same,NF-kB SEAP reporter activity,RAW-Dual [2]; [7],1.05
O=S(=O)(NCCSSCCNS(=O)(=O)c1cc(Cl)ccc1Cl)c1cc(Cl)ccc1Cl (library stock concentration (final ~1000-fold dilution): 10 mM),NF-kB SEAP reporter activity,RAW-Dual [1]; agonist: LPS (TLR4) 0.1 ug/mL,0.705
same,NF-kB SEAP reporter activity,RAW-Dual [1]; [4],0.705
same,NF-kB SEAP reporter activity,RAW-Dual [1]; [5],0.573
same,NF-kB SEAP reporter activity,RAW-Dual [1]; [6],0.312
O=S(=O)(NCCSSCCNS(=O)(=O)c1cc(Cl)ccc1Cl)c1cc(Cl)ccc1Cl,NF-kB SEAP reporter activity,RAW-Dual [2]; [8],1.13
same,NF-kB SEAP reporter activity,RAW-Dual [2]; [7],1.03
O.O=c1c(O)c(-c2ccc(O)cc2O)oc2cc(O)cc(O)c12,NF-kB SEAP reporter activity,RAW-Dual [2]; [8],0.957
same,NF-kB SEAP reporter activity,RAW-Dual [2]; [7],1.05
O.O=c1c(O)c(-c2ccc(O)cc2O)oc2cc(O)cc(O)c12 (library stock concentration (final ~1000-fold dilution): 10 mM),NF-kB SEAP reporter activity,RAW-Dual [1]; agonist: LPS (TLR4) 0.1 ug/mL,1.52
same,NF-kB SEAP reporter activity,RAW-Dual [1]; [4],1.13
same,NF-kB SEAP reporter activity,RAW-Dual [1]; [5],1.15
same,NF-kB SEAP reporter activity,RAW-Dual [1]; [6],1.18
O=C1N=C(O)CN1N=Cc1ccc(-c2ccc([N+](=O)[O-])cc2)o1,NF-kB SEAP reporter activity,RAW-Dual [2]; [7],1.03
O=C1N=C(O)CN1N=Cc1ccc(-c2ccc([N+](=O)[O-])cc2)o1 (library stock concentration (final ~1000-fold dilution): 10 mM),NF-kB SEAP reporter activity,RAW-Dual [1]; agonist: LPS (TLR4) 0.1 ug/mL,1.06
same,NF-kB SEAP reporter activity,RAW-Dual [1]; [4],0.843
same,NF-kB SEAP reporter activity,RAW-Dual [1]; [5],0.877
same,NF-kB SEAP reporter activity,RAW-Dual [1]; [6],0.756
Cc1ncc(NC(=O)c2cccc(C(F)(F)F)c2)cc1-c1cnc(OC2CCOCC2)c(N2CCOCC2)c1,NF-kB SEAP reporter activity,RAW-Dual [2]; [8],0.898
same,NF-kB SEAP reporter activity,RAW-Dual [2]; [7],1.04
